Experimental data published in PubChem BioAssay AID686978 (National Center for Advancing Translational Sciences (NCATS), 2013).
Screen size: about 420,000 compounds; about 64,000 (15%) were called active. This list was built around the results that the source calls inconclusive (neither active nor inactive); the mix of calls is not that of the screen. Calls follow the shape of the dose curve; as a rule, active = well fitted inhibition curve with a large enough effect; inconclusive = small, poorly fitted or top-dose-only effect; inactive = flat fitted curve, though single readings scatter. No potency is given beside an inconclusive call; the fits are too rough.

Assay: qHTS for Inhibitors of human tyrosyl-DNA phosphodiesterase 1 (TDP1): qHTS in cells in absence of CPT; also: nearly all actives have a fitted effect of over 55% in size
Settings: DT40 Tdp1-/- hTDP1 cells, no CPT, ATP luminescence, 48 h; activity change, negative = growth inhibition: at 46.2 µM (top of the series)
In short: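 Luminescent ATP content (CellTiter-Glo) served as the growth readout. Knockout chicken DT40 cells expressing human TDP1 were exposed to compounds without camptothecin for a minimum 48 hr at 37 °C.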
% is scaled to controls: 0 for no effect and ±100 for the full control effect; potency is read from the fitted curve at half-maximal effect; tags tell the direction and shape of the fitted curve.

Compound	activity change, negative = growth inhibition	Potency
COc1cc(C(CC(=O)N2CCCC2)c2c(OC)cc(OC)c3ccc(=O)oc23)cc(OC)c1OC (centres undefined)	inactive: -24.8%	
COC(=O)N1CCC2(CCN(C(=O)Nc3cccc(F)c3)CC2)CC1		inconclusive [inhibitor, partial curve, poor fit]
COc1ccc(Oc2ncc3ncc(=O)n(Cc4cccs4)c3n2)cc1		active: 23.1 µM
COC(=O)Cn1cc(/C=C/c2cc[n+](C)cc2)c2ccccc21		inconclusive [inhibitor, single point]
Cc1cccnc1C(NC(=O)C1CCN(Cc2ccccc2)CC1)c1ccc(F)cc1 (centres undefined)		inconclusive [inhibitor, single point]
CNc1nc(SC)nc2ccccc12	inconclusive: -31.2% [inhibitor]	
CCOC(=O)C1CCN(C(=O)c2cc3c(C)cc(C)cc3[nH]2)CC1		inconclusive [inhibitor, full curve, poor fit]
N#CCCN(C(=S)Nc1ccc(Cl)c(Cl)c1)C1CCCCC1		inconclusive [inhibitor, single point]
Oc1ccc(Cl)cc1CNc1cccc2cccnc12	inconclusive: -33.3% [inhibitor]	
CCOc1ccc(CN2CCC(n3nccc3NC(=O)C3CC3)CC2)cc1CO	inactive: 1.56%	
O=C(c1cccc(S(=O)(=O)N2CCOCC2)c1)N(Cc1ccco1)Cc1cccs1		inconclusive [inhibitor, single point]
COc1ccccc1NCCC(=O)OCC(=O)Nc1cc([N+](=O)[O-])ccc1F	inactive: 4.66%	
O=C(Nc1nc2ccccc2[nH]1)c1cccc(Cl)c1		inconclusive [inhibitor, single point]
CC1=NN(c2ccc(C(=O)OC(C)C)cc2)C(=O)/C1=C\C=C\c1ccco1		inconclusive [inhibitor, single point]
Cc1ccc(Sc2cc(C(=O)NCCN(C)C)c3ccccc3n2)cc1		inconclusive [inhibitor, single point]
CC1CC(C)CN(S(=O)(=O)N2CCCC(C(=O)NC(C)c3ccccc3)C2)C1 (centres undefined)		inconclusive [inhibitor, single point]
COC(=O)c1c(NC(=O)COC(=O)c2ccc(Cl)cc2[N+](=O)[O-])sc2c1CCCCC2		inconclusive [inhibitor, single point]
Nc1nnc(CSCc2ccc(F)cc2)s1	inactive: -4.2%	
O=C(O)c1ccccc1C(=O)Nc1cccc([N+](=O)[O-])c1	inactive: -7.08%	
O=C(OCCc1cc2ccccc2c(=O)o1)N1CCOCC1	inactive: -14.6%	
C/C=C/c1cccc(-c2nc(C(=O)N3CCOCC3)cc3c2[C@H](CCO)N(C(=O)NC(C)C)C3)c1	inactive: -19%	
Cc1cc(C)c(S(=O)(=O)N2CCN(C(=O)c3c(C)nn(-c4ccccc4)c3Cl)CC2)c(C)c1		inconclusive [inhibitor, partial curve, poor fit]

Compound	activity change, negative = growth inhibition	Potency
CCOc1ccc2nc(SC3CC(=O)N(c4cccc(OC)c4)C3=O)sc2c1 (centres undefined)		active: 3.66 µM
CC(=O)N1CCN(CC(O)COc2ccc(S(=O)(=O)N3CCOCC3)cc2)CC1 (centres undefined)	inactive: -5.53%	
CC(C)CC(OC(=O)c1nsc(Cl)c1Cl)C(=O)NC1CCCC1 (centres undefined)	inactive: 2.3%	
C/C=C/C=C/C(=O)[C@@H]1[C@@H]([C@]2(C)OC(=O)C(C)=C2O)[C@H]2/C(=C(O)/C=C/C=C/C)C(=O)[C@]1(C)C(=O)C2(C)O (some centres undefined)		inconclusive [inhibitor, single point]
Cc1c(C(=O)N2CCN(CCc3ccccn3)CC2)oc2ccc(Cl)cc12		inconclusive [inhibitor, single point]
COc1ccc(OC)c(/C=C2\C=Cc3ccccc32)c1		inconclusive [inhibitor, single point]
Cc1cc(-n2c(C)cc(C(=O)COc3ccc([N+](=O)[O-])cc3)c2C)no1		inconclusive [inhibitor, full curve, poor fit]
COC(=O)c1cc(C)sc1NC(=O)CN1CCN(C(=O)C2CCCO2)CC1 (centres undefined)	inactive: -15.2%	
COc1ccc(-c2csc(NC(=O)CSc3n[nH]c(N)n3)n2)cc1		inconclusive [inhibitor, single point]
COc1ccc(C(C)(C)C)cc1NC(=O)c1cccc(S(=O)(=O)N2CCN(C(C)=O)CC2)c1		inconclusive [inhibitor, single point]
Cc1ncc2c(c1CNC(=O)c1ccccc1F)CCN(C(=O)c1ccc3c(c1)OCCO3)C2		active: 0.13 µM
Cc1cc(C)c(C)c(S(=O)(=O)N2CCC(C(=O)NCC(c3ccccc3)N(C)C)CC2)c1C (centres undefined)		inconclusive [inhibitor, single point]
CC(C)c1ccc(CNC(=O)C2CC(=O)N(C3CCCCC3)C2)cc1 (centres undefined)	inactive: -19.8%	
O=C(CCS(=O)(=O)c1ccccc1)Nc1nc2c(s1)CCCC2		inconclusive [inhibitor, single point]
CC(OC(=O)c1cccs1)C(=O)Nc1nc(-c2ccccc2)cs1 (centres undefined)		inconclusive [inhibitor, single point]
Cc1cc(C)n(CCC(=O)N=Nc2c(O)[nH]c3ccc(Br)cc23)n1		inconclusive [inhibitor, partial curve, poor fit]
COc1ccc2oc(C(=O)OCC(=O)NCCc3ccc(S(N)(=O)=O)cc3)c(C)c2c1		inconclusive [inhibitor, single point]
COC(=O)c1c(SC)nc2ccccc2c1OCc1cc(C)ccc1C		inconclusive [inhibitor, single point]
O=C(COC(=O)/C=C/c1ccc([N+](=O)[O-])cc1)NC(=O)NC1CCCCC1	inconclusive: -31.2% [inhibitor]	
O=C(c1ccc(F)cc1)C1CCN(C(=S)Nc2ccc(F)cc2)CC1		active: 14.6 µM
O=C(CSc1nc(-c2cccs2)cc(C(F)(F)F)n1)Nc1ccccc1Cl		active: 18.4 µM
O=C(Nc1ccc2nc(SCC(=O)N3CCc4ccccc43)sc2c1)c1ccc(Cl)cc1		active: 11.6 µM
